Test results: PubChem BioAssay (NCI)
Several values for one entry are separate records, joined by “and”; a condition that tells them apart may be missing. Equal values may be shown once.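 Test compounds were applied to cells in 96-well plates for 48 hours at 5 doses. At the GI50, growth is halved. TGI marks complete inhibition of growth.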 Square brackets hold non-standard residues; d marks the D form. Peptide text beside a SMILES is read from it. * marks the point of attachment. ξ: configuration not given here. X17 = COc1ccc(C(N*)c2ccc(OC)cc2)cc1; NMeF = CN[C@@H](Cc1ccccc1)C(=O)O; NMeD = CN[C@@H](CC(=O)O)C(=O)O; NMeV = CN[C@H](C(=O)O)C(C)C; ξNMeV = CNC(C(=O)O)C(C)C; Boc = CC(C)(C)OC(=O)*; ξNMeA = CNC(C)C(=O)O; ξV = CC(C)C(N)C(=O)O

Tested on: NCI-H322M lung
Assay: growth of human tumour cells (NCI), 48 h

SMILES	TGI	GI50
CCCCCC[C@@H]1CCC2C(CO)[C@@H](O)CC[C@@H]2C1 (stereo partly drawn)	30.1 µM	
c1ccc2c(c1)Cn1c-2nc2ccccc21	> 100 µM	
O=C1CN(c2cccc(Cl)c2)C(=O)CN1CCN1CC(=O)N(c2cccc(Cl)c2)CC1=O	> 100 µM	
CCc1c(OC(C)=O)c2c(NC3OCC(OC(C)=O)C(OC(C)=O)C3OC(C)=O)nc(SC)nc2oc1=O (stereo not drawn)	> 100 µM	
COc1ccc(/C=c2\sc3n(c2=O)CCN=3)cc1	> 100 µM	
Nc1nccc(-c2c[nH]c3cc(Br)ccc23)n1	60.9 µM	
COc1ccc(C(=C2C=CC=C2)c2ccc(OC)cc2)cc1	> 100 µM	
CC(C)=CCC[C@@H](C)c1c(O)c(O)c(C)c2nccnc12	> 100 µM	
COc1nc(NC2OC(COC(C)=O)C(OC(C)=O)C(OC(C)=O)C2OC(C)=O)c2c(OC(C)=O)cc(=O)oc2n1 (stereo not drawn)	> 100 µM	
COc1cc(-c2ccc3cc(OC)c(OC)c(OC)c3c2)cc(OC)c1OC	> 100 µM	> 100 µM
CC(C)c1cc2c(cc1S(=O)(=O)O)[C@@]1(C)CCC[C@@](C)(C(=O)O)C1CC2 (stereo partly drawn)	> 100 µM	
O=C(N/N=C/c1ccc(Cl)cc1)c1c(Cl)c(Cl)c(Cl)c(Cl)c1-c1nc2ccccc2[nH]1	> 100 µM	
COc1cc(C2CC(C)(O)Oc3cc4c(cc32)OCO4)cc(OC)c1OC (stereo not drawn)	> 100 µM	
CCN1C(=O)N(c2ccccc2)C2NC(=S)N(/N=C/C=C/c3ccccc3OC)C21 (stereo not drawn)	> 100 µM	0.253 µM
CCC(=O)NC(Nc1cc(C)on1)(C(F)(F)F)C(F)(F)F	> 100 µM	
COc1ccc(-c2[nH]c3c4c(nc5c(c24)C(=O)CC(C)(C)C5)CC(C)(C)C3)cc1	> 100 µM	
COC(=O)C(CCCN1C(=O)c2ccccc2C1=O)C(=O)OC	> 100 µM	
CC1=Nc2ccccc2OC(C)=C1N=Nc1ccc2nc(C)[nH]c2c1	> 100 µM	
Nc1c(C(=O)Nc2cccc(C(F)(F)F)c2)sc2nc3c(cc12)CCCCC3	> 100 µM	4.91 µM
Cc1ccc(N(Cc2ccccc2)Cc2ccccc2)cc1	> 100 µM	
CC(=O)O/N=C(/C)c1ccccc1O	> 100 µM	
O=C1CCCCC1CN1CCCCC1 (stereo not drawn)	> 100 µM	
Nc1n[nH]c2cc(F)c([C@@H]3Nc4ccc5[nH]ncc5c4[C@H]4C5CCC(C5)[C@@H]34)cc12 (stereo partly drawn)	> 50 µM	0.365 µM
CCOC(=O)C1=C(C)N(c2ccc(F)cc2F)[C@]2(C#N)C(O)=C(Cl)C(Cl)=C(O)[C@]12C#N	> 100 µM	> 100 µM
N#CC(Cc1ccccc1)N(CCC1=CCCCC1)C(c1ccccc1)c1ccccc1 (stereo not drawn)	> 100 µM	

SMILES	TGI	GI50
CC1(C)O[C@H]2OC(CO[Si](C)(C)C(C)(C)C)C(N=[N+]=[N-])[C@H]2O1 (stereo partly drawn)	38.8 µM	
O=C(C1OC1c1ccc(Br)cc1O)C12CC3CC(CC(C3)C1)C2 (stereo not drawn)	> 100 µM	
CCCCCCCCCCn1cc[n+](C)c1	> 96.4 µM	16.8 µM
N[C@@H]1CCCC[C@@H]1N.O=P([O-])([O-])CN(CCN(CP(=O)([O-])[O-])CP(=O)([O-])[O-])CP(=O)([O-])[O-].[Pt+2]	> 25 µM	> 25 µM
COC(=O)C1CC(C=[N+](C)C)=C(SC)N1C(=O)OCc1ccccc1 (stereo not drawn)	> 100 µM	
Nc1c(S(=O)(=O)O)cc2cc(S(=O)(=O)O)ccc2c1N=Nc1ccc(-c2ccc(N=Nc3c(N)c(S(=O)(=O)O)cc4cc(S(=O)(=O)O)ccc34)c(S(=O)(=O)O)c2)cc1	> 100 µM	
Nc1ccccc1SC(CC(=O)c1ccccc1)c1cccc([N+](=O)[O-])c1 (stereo not drawn)	31.9 µM	16.7 µM
CC(=O)OCCOCNC(=S)N/N=C(\C)c1cnccn1	> 100 µM	
N=c1nnc2ccc(Cl)cc2n1O	> 100 µM	
CC(C)=CCC(O)C1=CC(=O)c2c(O)ccc(O)c2C1=O (stereo not drawn)	7.3 µM	
C/C(=N/Nc1ccc([N+](=O)[O-])cc1[N+](=O)[O-])C(CC(C(=O)NCc1ccccc1)/C(C)=N\Nc1ccc([N+](=O)[O-])cc1[N+](=O)[O-])C(=O)NCc1ccccc1 (stereo not drawn)	5.13 µM	
Cc1ccc(NC(=O)CC2Sc3ccccc3NC2=O)cc1C (stereo not drawn)	> 100 µM	
Cc1ccc(/C=C/C(=O)c2cccc3ccccc23)cc1	32 µM	
CCN(CC)C(=S)N/N=C/c1cc([N+](=O)[O-])ccc1O	77.6 µM	
c1ccc(Sc2ncnc3ccccc23)cc1	33.2 µM	17.3 µM
CC1(C)OC1COc1c2occc2cc2ccc(=O)oc12 (stereo not drawn)	> 100 µM	
CCOC(=O)Nc1sc2c(c1C#N)CCCC2	> 100 µM	
O=C(/C=C/c1ccc([N+](=O)[O-])cc1)c1ccc(NCc2nc3ccccc3[nH]2)cc1	20.5 µM	
C=C(C)CCOC(c1ccccc1)(c1ccccc1)c1ccccc1	> 100 µM	
CN(C)c1cc(NN=C(c2ccc(O)cc2)c2ccc(O)cc2)c([N+](=O)[O-])cc1[N+](=O)[O-]	25.5 µM	12 µM
Cc1cc(C)nc(NS(=O)(=O)c2ccc(NC(=O)c3ccc4nc5ccccc5c(Nc5ccc(S(N)(=O)=O)cc5)c4c3)cc2)n1	> 100 µM	
Oc1ccc(Cc2cc(Cc3ccc(O)cc3)cc(Cc3ccc(O)cc3)c2)cc1	> 50 µM	
COc1ccc(N=NC(=Nc2ccccc2)c2ccc(N(CCC#N)CCC#N)cc2)cc1	> 100 µM	
S=c1sc2c(n1-c1ccccc1)NC=NC2S (stereo not drawn)	> 100 µM	
N[C@@H](CCC(=O)NCP(=O)(O)O)C(=O)O	> 100 µM	

SMILES	TGI	GI50
CN1CC[C@@H](NC(=O)Nc2ccc(C#N)cc2)C[C@@H]1c1nc2ccccc2[nH]1	> 100 µM	> 100 µM
NC(N)=Nc1ccc(CC(N)NCC(=O)O)cc1 (stereo not drawn)	> 25 µM	
C[C@]12CC[C@H](O)CC1=CC[C@@H]1[C@@H]2CC[C@]2(C)C(=N/N)/C(=N\O)C[C@@H]12	> 100 µM	
O=C(Oc1ccc(Cl)cc1)c1ccccc1Nc1ccnc(C(F)(F)F)c1	43.6 µM	17.4 µM
COCCOc1ccc(-c2nc3ccc(-c4nc5ccc(N6CCN(C)CC6)cc5[nH]4)cc3[nH]2)cc1	9.93 µM	3.07 µM
CN(C)CC1CC/C(=C\c2ccc(O)cc2)C1=O (stereo not drawn)	30.6 µM	
O=C(/C=C/c1ccc(O)cc1)c1ccc(O)cc1	> 100 µM	
COc1cccc(C(=O)NC(c2ccc(C)cc2)c2cc(Cl)c3cccnc3c2O)c1 (stereo not drawn)	27.3 µM	0.617 µM
CCN(CC)CCNC(=O)c1cc2cc(NC(=O)c3cc4cc([N+](=O)[O-])ccc4[nH]3)ccc2[nH]1	12.4 µM	
O=C(OCc1ccccc1)N1CCNCCN(C(=O)OCc2ccccc2)CCNCC1	49.2 µM	
c1ccc2c3[nH]c(c2c1)=Nc1ccc(cc1)-c1nc2cc(ccc2o1)N=c1[nH]c(c2ccccc12)=Nc1ccc2nc(oc2c1)-c1ccc(cc1)N=3	> 100 µM	
Oc1ccc2c(c1)c1c(n2CCN2CCOCC2)-c2ccccc2CC1	> 100 µM	
COc1ccc2nc3cc(Cl)ccc3c(NCCNCC(C)O)c2c1 (stereo not drawn)	5.23 µM	1.55 µM
C=C1CCN2CC[C@@H](OC(=O)/C(C)=C\C)[C@@H]12	> 100 µM	
Nc1nc(-c2ccccc2)nc2oc(-c3cccs3)nc12	> 100 µM	
Cc1ccc(Oc2ccc(C)cc2N)cc1	> 100 µM	
COc1ccc(OC)c(N2CC(N)C2=O)c1 (stereo not drawn)	> 100 µM	
CCN(Cc1ccc(F)cc1)c1cc(Cl)c(CO)c(Cl)c1	30.6 µM	15.9 µM
CCC(=O)NCC1CCCN2CCCCC12 (stereo not drawn)	> 100 µM	
Cc1cccc(Cn2c3c(c4cc(O)ccc42)C(=O)c2ccccc2C3=O)c1	> 100 µM	
Cc1csc(-c2nnc(Nc3ccc(Oc4ncccc4-c4ccnc(N)n4)cc3)c3ccccc23)c1	> 100 µM	5.86 µM
C(=C(c1ccc(OC2CCCCO2)cc1)c1ccc(OC2CCCCO2)cc1)c1ccccc1 (stereo not drawn)	2.37 µM	
CC(=O)Nn1c(=S)[nH]c2ccccc21	> 100 µM	
O=C(CCCSc1nc(-c2ccccc2)cc(-c2ccccc2)n1)NO	10.5 µM	1.76 µM
CCN(C(=O)N1CCN(c2cc3c(cc2F)c(=O)c(C(=O)O)cn3C2CC2)CC1)c1nc(-c2ccc(Cl)cc2)cs1	> 26.9 µM	1.08 µM

SMILES	TGI	GI50
Cc1ccccc1OC(C)C(=O)NN1C(=O)CSC1c1ccccc1 (stereo not drawn)	> 100 µM	
CN(C)CCNS(=O)(=O)c1ccc(N)cc1	> 100 µM	
N#CC(NCc1cccc(CNC(C#N)c2ccccc2)c1)c1ccccc1 (stereo not drawn)	> 100 µM	
Oc1ccc(-c2nc3ccc(Br)cc3s2)cc1	81.4 µM	
Cc1cc(Nc2ccc(S(=O)(=O)O)c3cc(S(=O)(=O)O)cc(S(=O)(=O)O)c23)c2ccccc2n1	> 100 µM	
CC(C)[C@@H]1C=C2CC[C@H]3[C@](C)(CN)CCC[C@]3(C)[C@H]2CC1	4.13 µM	1.98 µM
NC1(c2cc3ccccc3s2)CCCC1	> 100 µM	
CCCCCCCCCCCCCCCC[N+](C)(C)Cc1ccccc1	37 µM and 4.55 µM	4.54 µM and 2.2 µM
COc1ccc(C2[C@@H](c3ccccc3)C(=O)N2c2cc(OC)c(OC)c(OC)c2)cc1F (stereo partly drawn)	> 100 µM	0.0687 µM
CC(C)(C)c1cc2ccc(C(N)=O)cc2c(=O)[nH]1	> 100 µM	
COC(=O)[C@@H](O)[C@](O)(CCC(C)C)C(=O)O[C@@H]1C(OC)=C[C@]23CCCN2CCc2cc4c(cc2[C@H]13)OCO4	20 µM	
Cc1ccc(/C=C/C(=O)CCN(C)C)cc1	> 100 µM	
N#C/C(=C\c1cccc(Cl)c1Cl)c1ccccc1	> 100 µM	
CC(=O)CC(OC(C)=O)C1=CCC2C(CC1C)OC(=O)C2C (stereo not drawn)	> 100 µM	
CCCCCCCC/C=C\CCCCCCCCCCCC(=O)O	> 115 µM	
Cc1oc2c(cc(O)c3cc(O)ccc32)c2cccc1-2	> 100 µM	
Cc1ccc(-c2csc(=Nc3ccccc3)n2NC(=O)c2ccncc2)cc1	> 100 µM	
O=c1ccc2ccccc2cc1[O-].O=c1ccc2ccccc2cc1[O-].[O]=[U+2]=[O]	64.1 µM	22.5 µM
Cn1c2ccc3cc2c(=S)c2cc(ccc21)OCCOCCOCCOCCOCCOCCO3	> 10 µM	
O=C(Nc1ccc(Oc2ccc(Nc3nc4ccccc4s3)cc2)cc1)Nc1ccc(Cl)c(C(F)(F)F)c1	4.47 µM	1.9 µM
CC(=O)Nc1nc(NC(C)=O)c2[nH]c(CO)nc2n1	> 100 µM	
O=C1CCC2(c3ccc(Cl)cc3)Nc3ccncc3N12 (stereo not drawn)	> 10 µM	
COc1ccc2cc1Oc1ccc(cc1)C[C@H]1c3cc(c(OC)cc3CCN1C)Oc1c(O)c(OC)cc3c1[C@H](C2)N(C)CC3	72.2 µM	
COc1ccc(C(NC(=O)C[C@@H](C(=O)N(C)C(C)C(=O)O)N(C)C(=O)[C@@H]2CCCN2C(=O)[C@H](C(C)C)N(C)C(=O)C(C(C)C)N(C)C(=O)[C@H](Cc2ccccc2)N(C)C(=O)C(NC(=O)OC(C)(C)C)C(C)C)c2ccc(OC)cc2)cc1 (stereo partly drawn) (Boc-[ξV][NMeF][ξNMeV][NMeV]P[NMeD](X17)[ξNMeA]-OH)	37.5 µM and 29.5 µM	
